# Results from ChEMBL document CHEMBL4888484, “Replenishing the malaria drug discovery pipeline: Screening and hit evaluation of the MMV Hit Generation Library 1 (HGL1) against asexual blood stage Plasmodium falciparum ,using a nano luciferase reporter read-out” (2022).
# Out of some 150,000 compounds screened, about 540 (0.36%) showed an effect of 50% or more. Some of the results follow.
# System: Plasmodium falciparum
# Experiment: Primary screen in NF54 nanoGlo assay, in single point, at 2uM, 72h; a lower Z score goes with more inhibition
# Type: functional, Erythrocyte
# Conditions: timepoint 72 hour
SMILES,% Inhibition,Z score
Cc1[nH]c([C@H]2CC(=O)N(C3CCCC3)C2)nc1-c1ccc(F)cc1F,0%,-0.02
O=C(NC(CC(F)(F)F)c1ccc(Cl)cc1)C1CCOC1 (configuration not stated),-8%,1.47
CC(C)CCNS(=O)(=O)c1ccc(NS(=O)(=O)N(C)C)cc1,-3%,0.3
O=C(Cn1ccc2ccccc21)N1C[C@H]2CC[C@@H](C1)N(CC1CC1)C2,-3%,0.53
Cc1nc(N)nc(N2CCOCC2)c1CCOc1ccccc1,3%,-0.34
Cc1cccc(NS(=O)(=O)c2cc3n(c2)CCCNC3=O)c1,-14%,1.58
Cc1ccc(-c2nnc(N3CCC(C(=O)NCC4CCCCC4)CC3)o2)cc1,-6%,0.89
COc1cc(CN2C(=O)CC[C@@H]3CN(Cc4ccccc4)CC[C@@H]32)cc(OC)c1OC,8%,-1.04
Cc1nn(C)c(-n2cccn2)c1C(=O)NCc1ccccc1Cl,,2.22
Cc1nn(C)c2nc(-c3cccnc3)nc(N(C)CCc3cn[nH]c3)c12,7%,-1.38
c1ccc(-c2cn3c(n2)CO[C@@H](CNC2CCCC2)C3)cc1,17%,-1.94
O=C([C@H]1CCCN(S(=O)(=O)N2CCCC2)C1)N1CCCn2nc(-c3ccc(F)cc3)cc2C1,-2%,0.34
c1ccc2c(c1)CC(Cc1nc([C@H]3CCOC3)n[nH]1)C2,-7%,0.97
CCn1cc(CNC(=O)[C@@H](C)Cn2cncn2)c(C)n1,-5%,0.88
Brc1cccc(-c2nnc(-c3n[nH]cc3NCc3ccc4c(c3)OCO4)[nH]2)c1,2%,-0.29
O[C@]12CCCC[C@H]1CN(c1nc(C3CC3)nc3c1CCNCC3)CC2,-6%,1.1
COc1ccc(CN2CC[C@H]2C(=O)NCCc2ccccn2)cc1,-17%,2.28
CN(C)c1ccnc(CNS(=O)(=O)c2cccs2)n1,-7%,1.1
Cc1ccc(NC(=O)C(=O)N(C)C(C)C)cc1OC(F)F,-10%,1.05
Cc1cccc(CNC(=O)c2csc3cncn23)c1,0%,0.07
CC(C)CN(Cc1cc(NC(=O)N(C)C)ccc1N(C)C)C(=O)c1ccco1,-13%,1.4

SMILES,% Inhibition,Z score
CNC(=O)c1cc(Oc2cccc(N[C@@H](C)C3CC(F)(F)C3)c2)ccn1,-8%,1.25
Cc1cnc(CN2C[C@]3(CCCN(C(=O)c4nccn4C)C3)CCC2=O)cn1,-12%,1.55
CCOc1cc(Cl)ccc1NC(=O)NCc1ccnn1C,28%,-3.17
CCCN(Cc1cc(NC(=O)NC(C)C)ccc1N(C)C)C(=O)C(C)C,-14%,1.33
CCOc1ccccc1NC(=O)[C@H](C)S(C)(=O)=O,-9%,1.8
Cc1cccc(OCc2nc(CN(CCN3CCOCC3)C(=O)C(C)C)cs2)c1,-11%,1.45
CCNC(=O)N1CCC(n2cnc3cnccc3c2=O)CC1,-13%,1.14
O=C(c1cccc(Oc2ccccc2)c1)N1CC[C@@]2(O)CCNC[C@H]2C1,-16%,1.63
CCc1noc([C@H](C)NC(=O)c2cnc(OC)nc2)n1,9%,-0.79
Cc1ccnc([C@H](C)NS(=O)(=O)c2occc2Br)n1,9%,-1.64
O=C(c1cnnn1-c1ccccc1)N1CCC(O)(CO)CC1,-9%,0.83
Cc1cnc(N2CCO[C@H](c3ccco3)C2)c(Br)c1,-9%,1.22
CCO[C@H]1CCOC2(CCN(C(=O)COc3ccccc3)CC2)C1,-14%,2.56
O=C(NCc1ccc(-n2cncn2)nc1)C1CC2CCC1C2 (configuration not stated),1%,-0.18
CC(C)Oc1cccc(C(=O)[C@H]2CCCN(Cc3cccc4c3OCO4)C2)c1,8%,-1.15
Cc1c(-c2cnn(C)c2)nc(N)c(C#N)c1-c1cc(CN(C)C)cs1,27%,-2.53
COCCn1c(-c2ccccn2)nc2cc(NC(C)=O)cc(C(=O)N[C@H]3CCCc4ccccc43)c21,3%,-0.36
CCC(=O)N[C@@H]1CC[C@@]2(OC)CCN(C(=O)c3ccc(Cl)s3)[C@H]2C1,-11%,1.48
Cc1csc(CCNC(=O)c2ccc(-c3cc(C)c(C)[nH]c3=O)cc2)n1,6%,-0.84
CC(C)c1ccc([C@@H](O)CN2CCCN(C3CC3)CC2)cc1,-4%,0.77
COCC[C@]1(NC(=O)c2ncn(C(C)(C)C)n2)CCOC1,5%,-0.46

SMILES,% Inhibition,Z score
O=C(NCc1ccc(F)c(Cl)c1)C1(N2CCCC2)CCCCC1,-13%,1.37
CCS(=O)(=O)NCCCNc1ccc(C#N)nc1,-1%,0.16
COC[C@](C)(CNC(=O)c1cccc(Br)c1)OC,-16%,1.86
COC(=O)c1ncn(CC(=O)N(c2ccccc2)C2CCCCC2)n1,-12%,1.54
CC(C)(C(=O)N1CCC[C@@H]2CCCC[C@@H]21)n1cccn1,-3%,0.33
CCc1nn(C[C@H]2COc3ccccc3O2)c(=O)c(C#N)c1CC,6%,-0.88
CO[C@@](F)(C(=O)Nc1ccc(OC(F)(F)F)cc1)C(F)(F)F,-1%,0.16
Cc1ccc(-c2nc(C(=O)N3C[C@H](O)[C@@H](N(C)C)C3)cs2)n1C,0%,-0.01
Cc1cnccc1NC(=O)N(Cc1ccco1)C[C@H]1CCCO1,-18%,1.86
CCc1cnc(Cn2nnc3c(cnn3C)c2=O)o1,-8%,1.3
CC(C)c1cc(NC(=O)NCCN(C)C)n(C(C)C)n1,-11%,1.97
CC(C)(O)CN(C(=O)c1cc2n(n1)CCCC2)C1CC1,-1%,0.1
CN(Cc1ccccc1)c1nc2c(c(Oc3ccccc3F)n1)CN(C(=O)c1cccc(C(F)(F)F)c1)CC2,4%,-0.62
C#CC[C@@H](CO)NC(=O)Nc1c(C)cccc1C,15%,-1.74
Cn1c(N)c(C(=O)Nc2ccc3ccccc3c2)sc1=S,-3%,0.44
COc1cccc(C(=O)N2CCN(C3=Nc4ccc(C(F)(F)F)cc4Oc4ccccc43)C[C@@H]2C)c1,10%,-1.01
CN1CCN([C@H]2CCN(c3ncc(Cl)cc3F)C[C@H]2CCCO)CC1,-19%,2.04
CN(C)c1cccc(C(=O)c2cccc(N(C)C)c2)c1,-33%,3.85
Cc1cc(C)nc(Cn2ccnc2-c2cccc([C@H](C)N(C)C)c2)n1,0%,-0.07
O=C(NCCc1cccs1)c1cc(-c2ccc(F)cc2)ns1,5%,-0.63
CC(C)c1ocnc1C(=O)Nc1ccc(OCC2CCOCC2)cc1,4%,-0.75

SMILES,% Inhibition,Z score
COc1cc(NS(=O)(=O)c2ccccc2-c2nc(-c3ccc(C)cc3)no2)cc(OC)c1OC,1%,-0.09
COc1nsc(CNCc2cnn(C)c2)c1Br,-12%,1.36
COc1ccccc1C1CNCCN1C(=O)CC(N)c1ccccc1 (configuration not stated),-9%,1.79
Cc1cccc(OC[C@H](C)NC(=O)NCC(=O)NC(C)C)c1,-3%,0.3
CC1(C)CCN(C(=O)Cn2cnc(C(N)=O)n2)C[C@@H]1c1ccccc1,5%,-0.54
CC1(C)C[C@@H](O)CCN(c2nnc(-c3ccc(O)cc3)s2)C1,-6%,1.24
O=C(NCC(F)F)c1ccc(S(=O)(=O)NCc2ccncn2)cc1,-5%,0.97
CCCCN(CCc1nc(-c2ccccc2)no1)C(=O)c1ccco1,6%,-0.87
O=C(Nc1cccs1)N1CCN(c2nccs2)C(=O)C1,7%,-0.94
COc1ccccc1C(=O)N1CCN(c2ncccc2NC(=O)c2ccc3c(c2)OCO3)CC1,-4%,0.61
CC(C)(C)Cc1cc(NC(=O)C2(C#N)CCCC2)[nH]n1,-14%,1.92
C#CCCC1(CCC(=O)N2CCCN(c3ccncc3)CC2)N=N1,0%,0
Cc1csc([C@H](C)NC(=O)c2cc(COc3ccc(F)c(F)c3)on2)n1,8%,-1.02
COc1cccc(NC(=O)c2c(C)oc3ncn(Cc4ccccc4)c(=O)c23)c1,-13%,1.7
CC(C)N(CCc1nccs1)C(=O)CC(F)(F)F,-6%,1.01
O=C(O)c1cnc(N2CCC[C@H](CN3CCCC3)C2)c(NS(=O)(=O)c2ccc(F)c(F)c2)c1,0%,0.04
Cc1c(Br)c(C#N)c(C)n1C,1%,-0.17
COc1ccc(C2(c3nnc(-c4cccc(S(=O)(=O)N(C)C)c4)o3)CCOCC2)cc1,-3%,0.59
CC1(C)CC2(CC(C)(c3csc(N)n3)OC2=O)C(=O)O1 (configuration not stated),13%,-1.5
CC1CCCc2ccccc2C1NC(=O)N1C[C@@H](O)C[C@H]1CO (some centres not stated),-3%,0.33
O=C(NCCc1ccc(C2CCCCC2)cc1)N1CCOC2(CCOCC2)C1,-6%,0.69
